# According to PubChem BioAssay AID504845 (National Center for Advancing Translational Sciences (NCATS), 2011):
# Where “and” joins values, the source holds several entries; their conditions need not be identical. Identical values can stand only once. Among all 390,000 compounds or so, about 150 (0.038%) were called active. The shares of active, inactive and inconclusive entries below differ from those in the screen. The call rests on the fitted dose curve; in most records, active means well fitted inhibition curve with a large enough effect; inconclusive means small, poorly fitted or top-dose-only effect; inactive means no such curve, though single readings can be large or run the other way. Potencies of inconclusive entries are doubtful fits and often do not repeat.
# Target: Regulator of G-protein signaling 4 (Homo sapiens) (UniProt P49798)
# Assay: Inhibitors of Regulator of G Protein Signaling (RGS) 4: qHTS; further: nearly all actives have a fitted effect of over 75% in size
# Settings: Transcreener GDP fluorescence polarization, RGS4-accelerated GTP hydrolysis; series mostly up to 114 µM
# Method in brief: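 MLSMR compounds (23 nl, pin-transferred) preincubated 10 min at room temperature with a 500nM (2x) first reagent, then RGS4 at 900nM (2x) plus Transcreener GDP mix added; fluorescence polarization (620/688 nm) read before and after 90 min at 30 °C.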
# Potency means the concentration at half of the fitted maximal effect; tags describe the fitted curve by direction and shape.
# Chain of UniProt P49798 (P49798 whole entry, looked up): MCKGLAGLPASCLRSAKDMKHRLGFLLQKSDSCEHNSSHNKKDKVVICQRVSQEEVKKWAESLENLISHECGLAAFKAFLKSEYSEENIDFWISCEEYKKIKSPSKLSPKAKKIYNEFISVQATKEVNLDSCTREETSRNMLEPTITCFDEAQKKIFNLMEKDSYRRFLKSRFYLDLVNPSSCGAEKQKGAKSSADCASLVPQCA
row,Structure (SMILES),Potency
1,CCOc1ccc(/C=C/[N+](=O)[O-])c2ccccc12,"inconclusive: 31.6 µM [inhibitor, full curve, poor fit]"
2,CC1CN(c2nc(-c3ccc(Br)cc3)nnc2-c2ccccc2)CC(C)N1 (stereo not given),inactive
3,CCC(C)NC(=O)c1cn(CCOC)c(=O)c2c1c1ccccc1n2C (stereo not given),inactive
4,N#Cc1c(-c2ccccc2)nc(SCc2ccc([N+](=O)[O-])cc2)[nH]c1=O,"inconclusive: 112 µM [inhibitor, partial curve, poor fit]"
5,CCc1ccccc1N1CC23C=CC(O2)C(C(=O)O)C3C1=O (stereo not given),"inconclusive: 17.8 µM [inhibitor, full curve, poor fit]"
6,CSc1ccc(/C=N/NC(=O)CNc2cccc3ccccc23)cc1,inactive
7,COc1ccc(CCNC(=O)CCn2c(=O)c3ccccc3n(Cc3ccccc3)c2=O)cc1OC,inactive
8,Cc1nnc(NC(=O)CSCc2cc(=O)c3ccccc3[nH]2)s1,inactive
9,CCOC(=O)c1c(N2C(=O)C3C4C=CC(O4)C3C2=O)sc2c1CCCC2 (stereo not given),"inconclusive: 44.7 µM [inhibitor, partial curve, poor fit]"
10,O=C(COc1ccc(-c2nnco2)cc1)Nc1cc([N+](=O)[O-])ccc1F,"inconclusive: 70.8 µM [inhibitor, partial curve, poor fit]"
11,Cc1cc(C)c(S(=O)(=O)C(C)C)c(=O)[nH]1,"inconclusive: 79.4 µM [inhibitor, partial curve, poor fit]"
12,Cc1cn(S(=O)(=O)c2cc(Br)ccc2Br)cn1,"inconclusive: 100 µM [inhibitor, partial curve, poor fit]"
13,COc1ccc(Cl)cc1NC(=O)C1CSC(c2ccncc2)=N1 (stereo not given),"inconclusive: 35.5 µM [inhibitor, full curve, poor fit]"
14,CCN1CCc2c(sc(NC(=O)c3ccc(S(=O)(=O)N(C)c4ccccc4)cc3)c2C(=O)NC)C1,"inconclusive: 89.1 µM [inhibitor, partial curve, poor fit]"
15,CCCCN(CCCC)C(=O)/C=C/c1cccc([N+](=O)[O-])c1,"inconclusive: 89.1 µM [inhibitor, single point]"
16,O=C(NCCN1C(=O)S/C(=C\c2cccnc2)C1=O)c1cc(S(=O)(=O)N2CCOCC2)ccc1F,inactive
17,Cc1cccc2cc(COC(=O)c3cccs3)c(=O)[nH]c12,"inconclusive: 89.1 µM [inhibitor, single point]"
18,COc1cc(/C=C2/SC(=S)N(CC(=O)Nc3cccnc3)C2=O)cc(OC)c1OC,"inconclusive: 79.4 µM [inhibitor, partial curve, poor fit]"
19,CCCCC[C@H](O)/C=C/C1=C(C/C=C\CCCC(=O)O)C(=O)CC1,"inconclusive: 0.844 µM [inhibitor, partial curve, poor fit]"
20,C#CC[N+](C)(C)CC#Cc1ccccc1,"inconclusive: 79.4 µM [inhibitor, single point]"

row,Structure (SMILES),Potency
1,Cc1cc(N2CCOCC2)ccc1/C=C\[N+](=O)[O-],"inconclusive: 20 µM [inhibitor, full curve, poor fit]"
2,O=C(Nc1cc(-c2nc3cc(Cl)ccc3o2)ccc1Cl)c1ccco1,"inconclusive: 79.4 µM [inhibitor, partial curve, poor fit]"
3,CCCCC/C=C\CC(O)/C=C/c1cccc(CC(O)CCCCO)n1 (stereo not given),"inactive and inconclusive: 7.51 µM [inhibitor, partial curve]"
4,COC(=O)c1cccc(Cn2c(Cl)c(/C=N/Nc3ccccc3C)sc2=O)c1,"inconclusive: 28.2 µM [inhibitor, full curve, poor fit]"
5,CC(=O)c1ccc(NC(=O)COC(=O)c2ccccc2Nc2ccccc2)cc1,"inconclusive: 50.1 µM [inhibitor, partial curve, poor fit]"
6,COc1ccc(S(=O)(=O)Nc2cccc(-c3ccc(N4CCCC4)nn3)c2)c(OC)c1,"inconclusive: 35.5 µM [inhibitor, full curve, poor fit]"
7,Cc1cc(-c2nc3c4c5c(sc4[nH]c(=O)n3n2)CCC5)c(C)o1,"inconclusive: 79.4 µM [inhibitor, partial curve, poor fit]"
8,COc1ccccc1-n1c(-c2cc(-c3ccco3)[nH]n2)n[nH]c1=S,"inconclusive: 31.6 µM [inhibitor, partial curve, poor fit]"
9,O=C(Nc1ccc([N+](=O)[O-])cc1Cl)c1cc(Cl)cc(Cl)c1O,"inconclusive: 17.8 µM [inhibitor, full curve, poor fit]"
10,Cc1ccc(C#N)c(SCC(=O)Nc2nccs2)n1,"inconclusive: 17.8 µM [inhibitor, full curve, poor fit]"
11,CCOC(=O)C(=CNc1ccc(C)cc1C)C(=O)OCC,inactive
12,COc1ccc2oc(=O)c(C(=O)N3CCN(C(=O)c4ccco4)CC3)cc2c1,"inconclusive: 100 µM [inhibitor, single point]"
13,COCc1cc(C)nc(SCc2ccc(Br)cc2)c1C#N,inactive
14,CC1CCCN(C(=O)CSc2nnc3n(C4CCCC4)c(=O)c4ccccc4n23)C1 (stereo not given),inactive
15,CC1CCc2nc3sc4c(c3c(N)c2C1)CCCC4 (stereo not given),"inconclusive: 89.1 µM [inhibitor, single point]"
16,CC(=O)c1sc2nc(-c3cccs3)ccc2c1N,"inconclusive: 79.4 µM [inhibitor, single point]"
17,COc1cc(/C=N/NC(=O)CC#N)cc(Br)c1O,"inconclusive: 44.7 µM [inhibitor, partial curve, poor fit]"
18,CC(C)(C)OC(=O)N(CCc1ccccc1)Cc1cccc(OCc2cccc(NC(=O)c3ccccc3)c2)c1,"inconclusive: 20 µM [inhibitor, full curve, poor fit]"
19,CCN(CC(=O)NCc1ccc(Cl)cc1)C(=O)CSc1cccc(C(F)(F)F)c1,"inconclusive: 56.2 µM [inhibitor, partial curve, poor fit]"
20,CC(C)OC(=O)c1ccc(N2CCN(c3ccc(F)cc3)CC2)nc1,"inconclusive: 79.4 µM [inhibitor, partial curve, poor fit]"
